According to the supplement of paper PMC4604168 (melanoma cell lines):
The other results are listed elsewhere or left out. Many values rest on one well or one pass, so single values are uncertain.

Columns and labels:
Experiment in all cases: cell count relative to DMSO control; melanoma cells; higher = more viable cells
Conditions in all cases: library dose: standard library concentration; 72 h
SkMel28 = tested on: SkMel28
SkMel2 = tested on: SkMel2
SkMel30 = tested on: SkMel30
SkMel5 = tested on: SkMel5
UACC257 = tested on: UACC257
UACC62 = tested on: UACC62
WM115 = tested on: WM115
WM1716 = tested on: WM1716
WM1745 = tested on: WM1745
WM3526 = tested on: WM3526
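Further: cells treated in 1,536-well plates, then fixed and DAPI-stained, with nuclei counted from automated high-throughput microscope images.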

SMILES	cell count (SkMel28) [%]	cell count (SkMel2) [%]	cell count (SkMel30) [%]	cell count (SkMel5) [%]	cell count (UACC257) [%]	cell count (UACC62) [%]	cell count (WM115) [%]	cell count (WM1716) [%]	cell count (WM1745) [%]	cell count (WM3526) [%]
CC1(C)CCC(c2ccc(Cl)cc2)=C(CN2CCN(c3ccc(C(=O)NS(=O)(=O)c4ccc(N[C@H](CCN5CCOCC5)CSc5ccccc5)c(S(=O)(=O)C(F)(F)F)c4)cc3)CC2)C1 + Nc1ncn([C@H]2C[C@H](O)[C@@H](CO)O2)c(=O)n1 [decitabine] (first compound 2 µM, partner dose 0.5 µM)	89.5	75.5	57.4	80.6	46.8	62.2	57.6	48.6	5.18	97
Cc1ccc(Nc2nccc(N(C)c3ccc4c(C)n(C)nc4c3)n2)cc1S(N)(=O)=O [Pazopanib] + CNC(=O)c1cc(Oc2ccc(NC(=O)Nc3ccc(Cl)c(C(F)(F)F)c3)cc2)ccn1 [sorafenib] (first compound 2 µM, partner dose 2 µM)	78	82.7	113	77.1	78	59.7	87	104	71.5	67.9
CC1(C)CCC(c2ccc(Cl)cc2)=C(CN2CCN(c3ccc(C(=O)NS(=O)(=O)c4ccc(N[C@H](CCN5CCOCC5)CSc5ccccc5)c(S(=O)(=O)C(F)(F)F)c4)cc3)CC2)C1 + Clc1ccc(Nc2nnc(Cc3ccncc3)c3ccccc23)cc1 [vatalanib] (first compound 2 µM, partner dose 10 µM)	46	67.1	30.3	39.9	28.9	32.4	38.8	31.2	2.73	62.7
CC1(C)CCC(c2ccc(Cl)cc2)=C(CN2CCN(c3ccc(C(=O)NS(=O)(=O)c4ccc(N[C@H](CCN5CCOCC5)CSc5ccccc5)c(S(=O)(=O)C(F)(F)F)c4)cc3)CC2)C1 + Cn1sc(=O)n(Cc2ccccc2)c1=O [TDZD-8] (first compound 2 µM, partner dose 2 µM)	55.3	87.5	70.5	81.1	38	63.8	73.9	60.8	5.48	81.8
CC1(C)CCC(c2ccc(Cl)cc2)=C(CN2CCN(c3ccc(C(=O)NS(=O)(=O)c4ccc(N[C@H](CCN5CCOCC5)CSc5ccccc5)c(S(=O)(=O)C(F)(F)F)c4)cc3)CC2)C1 + NC(=O)c1ccc(N(C(N)=O)c2c(F)cccc2F)nc1-c1ccc(F)cc1F [VX702] (first compound 2 µM, partner dose 2 µM)	104	72.8	54.8	81.4	43.2	93.5	85.7	66.9	7.67	83
Cc1ccc(Nc2nccc(N(C)c3ccc4c(C)n(C)nc4c3)n2)cc1S(N)(=O)=O [Pazopanib] + O=C(CCCCCCC(=O)Nc1ccccc1)NO [vorinostat] (first compound 2 µM, partner dose 0.4 µM)	44.6	69	77.4	65.8	73.9	60.3	64.3	81.6	71.8	77.7
O=C(/C=C/c1cccnc1)NCCCCC1CCN(C(=O)c2ccccc2)CC1 + COc1ccc(C2=N[C@@H](c3ccc(Cl)cc3)[C@@H](c3ccc(Cl)cc3)N2C(=O)N2CCNC(=O)C2)c(OC(C)C)c1 [Nutlin-3] (first compound 0.05 µM, partner dose 0.5 µM)	57.7	20.4	80.6	73.1	104	57.8	63.7	62.1	106	106
O=C(/C=C/c1cccnc1)NCCCCC1CCN(C(=O)c2ccccc2)CC1 + CCCCCCCCc1ccc(CCC(N)(CO)CO)cc1 [fingolimod] (first compound 0.05 µM, partner dose 10 µM)	1.49	0.224	8.17	35.1	61.3	9.53	11.9	18	3.2	17.9
CC1(C)CCC(c2ccc(Cl)cc2)=C(CN2CCN(c3ccc(C(=O)NS(=O)(=O)c4ccc(N[C@H](CCN5CCOCC5)CSc5ccccc5)c(S(=O)(=O)C(F)(F)F)c4)cc3)CC2)C1 + Cn1cncc1[C@@](N)(c1ccc(Cl)cc1)c1ccc2c(c1)c(-c1cccc(Cl)c1)cc(=O)n2C [tipifarnib] (first compound 2 µM, partner dose 0.05 µM)	70.2	51.5	52	62	40.2	69.1	63.2	34.1	3.31	87.6
Cc1ccc(Nc2nccc(N(C)c3ccc4c(C)n(C)nc4c3)n2)cc1S(N)(=O)=O [Pazopanib] + O=C(O)[C@@H]1[O][Sb](=[O])([O][Sb]2(=[O])[O][C@H]([C@H](O)CO)[C@H](O)[C@H](C(=O)O)[O]2)[O][C@H]([C@H](O)CO)[C@@H]1O [stibogluconate] (first compound 2 µM, partner dose 10 µM)	94.9	95.8	79.6	94	93.2	106	96	82.9	83.4	79.1
CC1(C)CCC(c2ccc(Cl)cc2)=C(CN2CCN(c3ccc(C(=O)NS(=O)(=O)c4ccc(N[C@H](CCN5CCOCC5)CSc5ccccc5)c(S(=O)(=O)C(F)(F)F)c4)cc3)CC2)C1 + O=C(O)[C@@H]1[O][Sb](=[O])([O][Sb]2(=[O])[O][C@H]([C@H](O)CO)[C@H](O)[C@H](C(=O)O)[O]2)[O][C@H]([C@H](O)CO)[C@@H]1O [stibogluconate] (first compound 2 µM, partner dose 10 µM)	72.1	78.2	43.7	81.5	40.9	74.6	88.8	69.5	4.28	74.2
O=C(/C=C/c1cccnc1)NCCCCC1CCN(C(=O)c2ccccc2)CC1 + NC(=O)c1ccc(N(C(N)=O)c2c(F)cccc2F)nc1-c1ccc(F)cc1F [VX702] (first compound 0.05 µM, partner dose 2 µM)	69.5	8.94	132	95.1	106	78.6	67.3	103	75.2	81.1
Cc1ccc(Nc2nccc(N(C)c3ccc4c(C)n(C)nc4c3)n2)cc1S(N)(=O)=O [Pazopanib] + O=C(Nc1cccc(Cl)c1)Nc1ncc(CCNc2ncnc3ccsc23)s1 [SNS314] (first compound 2 µM, partner dose 0.004 µM)	41.6	86.2	84.7	65.2	62.6	52	38.6	54.6	52	66.8
Cc1ccc(Nc2nccc(N(C)c3ccc4c(C)n(C)nc4c3)n2)cc1S(N)(=O)=O [Pazopanib] + CO[C@H]1C[C@@H]2CC[C@@H](C)[C@@](O)(O2)C(=O)C(=O)N2CCCC[C@H]2C(=O)O[C@H]([C@H](C)C[C@@H]2CC[C@@H](OCCO)[C@H](OC)C2)CC(=O)[C@H](C)/C=C(\C)[C@@H](O)[C@@H](OC)C(=O)[C@H](C)C[C@H](C)/C=C/C=C/C=C/1C [everolimus] (first compound 2 µM, partner dose 0.1 µM)	39.7	66.1	67.5	71.2	102	61.8	62.7	70.7	86.6	64
CC1(C)CCC(c2ccc(Cl)cc2)=C(CN2CCN(c3ccc(C(=O)NS(=O)(=O)c4ccc(N[C@H](CCN5CCOCC5)CSc5ccccc5)c(S(=O)(=O)C(F)(F)F)c4)cc3)CC2)C1 + Cc1cc(N2CCOCC2)cc2[nH]c(-c3c(NC[C@@H](O)c4cccc(Cl)c4)cc[nH]c3=O)nc12 [BMS536924] (first compound 2 µM, partner dose 1 µM)	79.6	60.8	58.1	75.5	55.9	67.8	63.2	62.9	9.65	70
O=C(/C=C/c1cccnc1)NCCCCC1CCN(C(=O)c2ccccc2)CC1 + Cn1c(Nc2ccc(C(F)(F)F)cc2)nc2cc(Oc3ccnc(-c4ncc(C(F)(F)F)[nH]4)c3)ccc21 [CHIR265] (first compound 0.05 µM, partner dose 0.4 µM)	35.2	19.8	59.2	36.9	73.6	49.6	38.5	54.6	60.5	49.1
Cc1ccc(Nc2nccc(N(C)c3ccc4c(C)n(C)nc4c3)n2)cc1S(N)(=O)=O [Pazopanib] + COc1ccc(C2=N[C@@H](c3ccc(Cl)cc3)[C@@H](c3ccc(Cl)cc3)N2C(=O)N2CCNC(=O)C2)c(OC(C)C)c1 [Nutlin-3] (first compound 2 µM, partner dose 0.5 µM)	48.7	87.9	77.4	55.2	77.8	47.4	55.5	75.4	61.5	87.4
CC1(C)CCC(c2ccc(Cl)cc2)=C(CN2CCN(c3ccc(C(=O)NS(=O)(=O)c4ccc(N[C@H](CCN5CCOCC5)CSc5ccccc5)c(S(=O)(=O)C(F)(F)F)c4)cc3)CC2)C1 + OCCn1cc(-c2cnc3nnn(Cc4ccc5ncccc5c4)c3n2)cn1 [PF04217903] (first compound 2 µM, partner dose 5 µM)	73.4	80.1	71.6	96	26.4	103	62.7	69	7.4	74.6
Cc1ccc(Nc2nccc(N(C)c3ccc4c(C)n(C)nc4c3)n2)cc1S(N)(=O)=O [Pazopanib] + Cc1cc(N2CCOCC2)cc2[nH]c(-c3c(NC[C@@H](O)c4cccc(Cl)c4)cc[nH]c3=O)nc12 [BMS536924] (first compound 2 µM, partner dose 1 µM)	63	83.3	68.4	65.6	87.5	88.2	96.8	90.4	56.1	68.7
O=C(/C=C/c1cccnc1)NCCCCC1CCN(C(=O)c2ccccc2)CC1 + CCCS(=O)(=O)Nc1ccc(F)c(C(=O)c2c[nH]c3ncc(Cl)cc23)c1F [PLX4720] (first compound 0.05 µM, partner dose 0.4 µM)	54.7	16.9	95.4	81.4	97.3	64.5	86.9	72.9	74.2	73.3
